Experimental data as given in patent publication USRE32311E.
Values after ≈ are worked out from the molar mass of the structure shown.

Tested on: Staphylococcus aureus S13E
Type: cell-based
Settings: agar dilution

Structure (SMILES)	MIC [µg/mL]
CCC(C)CCCCCCC(=O)N[C@@H](Cc1c[nH]c2ccccc12)C(=O)N[C@@H](CC(N)=O)C(=O)N[C@@H](CC(=O)O)C(=O)N[C@@H]1C(=O)NCC(=O)N[C@@H](CCCNC(=O)CCC(=O)O)C(=O)N[C@@H](CC(=O)O)C(=O)N[C@H](C)C(=O)N[C@@H](CC(=O)O)C(=O)NCC(=O)N[C@H](CO)C(=O)N[C@@H]([C@H](C)CC(=O)O)C(=O)N[C@@H](CC(=O)c2ccccc2N)C(=O)O[C@@H]1C (some centres unmarked) [Compound 15]	2 (≈ 1.15 µM)
CCCCCCCCCCC(=O)N[C@@H](Cc1ccccc1)C(=O)NCCC[C@@H]1NC(=O)CNC(=O)[C@@H](NC(=O)[C@H](CC(=O)O)NC(=O)[C@@H](CC(N)=O)NC(=O)[C@@H](N)Cc2c[nH]c3ccccc23)[C@@H](C)OC(=O)[C@H](CC(=O)c2ccccc2N)NC(=O)[C@H]([C@H](C)CC(=O)O)NC(=O)[C@@H](CO)NC(=O)CNC(=O)[C@H](CC(=O)O)NC(=O)[C@@H](C)NC(=O)[C@H](CC(=O)O)NC1=O [Compound 26]	16 (≈ 8.98 µM)
